Reference: PubChem BioAssay AID652104 (National Center for Advancing Translational Sciences (NCATS), 2013)
The campaign covered roughly 410,000 compounds. About 7,200 (1.8%) were called active. This list was built around the results that the source calls inconclusive (neither active nor inactive); the mix of calls is not that of the screen. The call rests on the fitted dose curve; in most records, active means well fitted activation curve with a large enough effect; inconclusive means small, poorly fitted or top-dose-only effect, or another doubt; inactive means no such curve, though single readings can be large or run the other way. Potencies of inconclusive entries are left out as doubtful fits.

assay: qHTS of TDP-43 Inhibitors; settings: TDP-43 expressing yeast growth rescue, BacTiter-Glo, 24 h; growth rescue (activation): at 46.1 µM (top of the series) unless noted; further: nearly all actives have a fitted effect of over 50% in size; on growth rescue (activation): % of control where 0% means no effect
Outline: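 Readout is BacTiter-Glo luminescence of cell growth, so inhibitors register as activators. TDP-43-expressing yeast at OD600=0.02 in galactose medium, after raffinose pregrowth to mid-log, were incubated with compound for 24 hr at 30 deg C.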
Potency means the concentration at half of the fitted maximal effect; tags describe the fitted curve by direction and shape.

Row | SMILES | Potency | growth rescue (activation)
1 | Cc1cc(C)cc(CC(=O)N2CCC2(C)C(=O)NS(=O)(=O)c2ccccc2Cl)c1 (stereo not drawn) | inconclusive [activator, partial curve, poor fit] | 
2 | COc1ccc(CN2C(=O)c3cccnc3C2=O)cc1S(=O)(=O)N(C)c1ccc(C)cc1 | inactive | 
3 | O=C(c1cn(-c2ccccc2)nc1-c1ccc(Cl)s1)N1CCOCC1 | inconclusive [activator, partial curve] | 
4 | CCOc1ccc(Oc2ccccc2NS(=O)(=O)c2ccc(CCC(=O)O)cc2)cc1 | inconclusive [activator, single point] | 
5 | COc1ccc(OC)c(C2=NOC(C(=O)Nc3c(C)n(C)n(-c4ccccc4)c3=O)C2)c1 (stereo not drawn) | inactive | 
6 | Nc1nn(-c2ccccc2)c(N)c1N=Nc1ccc2c(c1)OCO2 | active: 17.8 µM | 
7 | Cc1cccc(C(=O)Nc2ccc(NC(=O)Cc3ccc(Cl)cc3)cc2)c1 | inactive | 
8 | CCOc1ccc(C(=O)NCC(c2cccs2)S(=O)(=O)c2ccccc2)cc1 (stereo not drawn) | inconclusive [activator, single point] | 
9 | CCOc1ccc(C(=O)NCCSc2c(C)[nH]c3ccccc23)cc1OCC | inconclusive [activator, partial curve, poor fit] | 
10 | CCn1c(O)c(C=NC2CCCC(C)C2C)sc1=S (stereo not drawn) | inconclusive [activator, single point] | 
11 | Nc1nc(Nc2ccccc2)nc(NCc2ccco2)c1[N+](=O)[O-] | active: 20 µM | 
12 | O=S(=O)(Nc1ccc(-n2cccc2)cc1)c1ccc(F)cc1 | inconclusive [activator, single point] | 
13 | CCOc1ccc(NC(=O)c2cc(C)nc3c2c(C)nn3-c2ccc(C)cc2)cc1 |  | inactive: 0% [at 9.22 µM]
14 | Cc1cccc(C(=O)N2CCc3cc(CNC(=O)CSc4ccccc4)ccc32)c1 | inactive | 
15 | CCN(CC)c1ccc(/C=N/NC(=O)c2cccc(S(=O)(=O)N3CCOCC3)c2)c(O)c1 | inconclusive [activator, partial curve, poor fit] | 
16 | CC1CCCN(c2nc3c(c(=O)n(C)c(=O)n3C)n2Cc2ccccc2)C1 (stereo not drawn) | active: 17.8 µM | 
17 | CC(C)Cc1nn2c(=O)cc(COC(=O)c3ccc(NC(=O)C4CCCCC4)cc3)nc2s1 | inactive | 
18 | Cc1ccc(OCC(=O)Nc2cccc3nsnc23)c(C)c1 | inconclusive [activator, full curve, poor fit] | 
19 | Clc1ncnc2c1oc1ccccc12 | inactive | 
20 | Clc1ccc2c(c1)-c1nnc(Br)n1-c1ccccc1S2 | inconclusive [activator, single point] | 
21 | COC(=O)c1ccccc1NC(=O)CN1C(=O)COc2ccc(Cl)cc21 | active: 12.6 µM | 
22 | COC(=O)c1cccc(NC(=O)c2cccnc2)c1 | inactive | 

Row | SMILES | Potency | growth rescue (activation)
23 | O=C(NCCc1csc(-c2ccc(C(F)(F)F)cc2)n1)c1cccs1 | active: 22.4 µM | 
24 | O=C(N/N=C/C=C/c1ccco1)c1ccccc1Cl |  | inactive: -6.56% [at 1.82 µM]
25 | CC(C)(C)NC(=O)C(c1ccccc1)n1c(=O)c(-c2cc3ccccc3[nH]2)nc2ccccc21 (stereo not drawn) | inconclusive [activator, single point] | 
26 | O=C(COC(=O)/C=C/c1cccc(Cl)c1Cl)Nc1ccc2[nH]c(=O)[nH]c2c1 | inconclusive [activator, single point] | 
27 | O=S(=O)(c1ccccc1)c1nc(NCc2ccccc2)sc1Cl | active: 20 µM | 
28 | CC(C)Oc1ccc(C2CC(=O)N(c3cccc(C(=O)O)c3)C2=O)cc1 (stereo not drawn) | inconclusive [activator, partial curve] | 
29 | O=C(OCc1nc2ccccc2s1)c1ccco1 | inconclusive [activator, partial curve] | 
30 | CC(=O)N1CCCc2cc(S(=O)(=O)N3CCC(C(=O)Nc4ccc(C)cc4Cl)CC3)ccc21 | inactive | 
31 | CCSc1nc2ccc(N3C(=O)C4C5C=CC(C5)C4C3=O)cc2s1 (stereo not drawn) | inconclusive [activator, partial curve] | 
32 | Cc1ccccc1CNC(=O)CSc1nnc(C)c2c(C)n(-c3ccccc3)nc12 | inactive | 
33 | O=C(NCc1ccc(F)cc1)c1cc(C2CCCCN2C(=O)CCc2ccccc2)on1 (stereo not drawn) | inconclusive [activator, partial curve] | 
34 | CC(C)(C)NC(=O)NC(=O)COC(=O)Cc1c(F)cccc1Cl | inactive | 
35 | CC1(Cc2ccccc2C#N)C(=O)Nc2ccc(-c3ccc4[nH]ccc4c3)cc21 (stereo not drawn) | inconclusive [activator, partial curve, poor fit] | 
36 | CC(=O)Nc1cccc(-c2ccnc3c2CC(C)(C(=O)Nc2ccc(C(C)C)cc2)O3)c1 (stereo not drawn) | inconclusive [activator, partial curve] | 
37 | Cc1cc(C)cc(NS(=O)(=O)c2ccc3[nH]cc(C(=O)NCCc4ccccc4)c(=O)c3c2)c1 | inconclusive [activator, single point] | 
38 | Cc1cc(C(=O)COC(=O)Cn2c(C(F)(F)F)nc3ccccc32)c(C)n1Cc1ccco1 | inconclusive [activator, full curve, poor fit] | 
39 | CN(CC(=O)Nc1c(Cl)cccc1Cl)C(=O)c1ccccc1Cc1ccccc1 | inconclusive [activator, single point] | 
40 | Cc1ccc([C@@H]2CC=C(C(=O)O)[C@H](c3ccc(Br)cc3)N2S(=O)(=O)c2ccc(C)cc2)cc1 | inconclusive [activator, partial curve] | 
41 | Cc1ccc(C(O)c2ncc(-c3cccc4ccccc34)[nH]2)cc1F (stereo not drawn) | inconclusive [activator, full curve, poor fit] | 
42 | COC(=O)[C@]1(C)N[C@H](c2ccc(-c3ccc(F)cc3)cc2)[C@@H]2C(=O)N(C)C(=O)[C@@H]21 | inconclusive [activator, partial curve, poor fit] | 
43 | COc1ccc(OC)c(-c2noc(N3CCN(c4ccc(Cl)cc4)CC3)n2)c1 | active: 11.2 µM | 
